# From the supplement of paper PMC8728848
# The list shows a part of the results.
# B1: EPL1 (Trichoderma atroviride), A0PCX2 (protein)
# chain: MQLSNLFKLALFTAAVSADTVSYDTGYDDASRSLTVVSCSDGTNGLITRYHWQTQGQIPRFPYIGGAQAVAGWNSPNCGTCWKLTYSGKTIYVLAIDHTAAGFNIGLDAMNALTNGNAVALGRVSATASQVAVSNCGL
# Experiments:
# Assay in all cases: glycan array binding signal (z-score within array); higher = stronger binding
# Conditions in all cases: glycan notation: IUPAC condensed, linker removed
# [1] = biological target: Fuc(a1-2)Gal6S(b1-3)GlcNAc
# How it was run: (§1)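 Columns mapping to the same glycan were averaged after glycan names were converted to IUPAC-condensed notation. The data come from 3228 arrays in the Consortium for Functional Glycomics database, limited to those with an available protein sequence. Binding is reported as a within-array Z-score averaged across arrays of one protein sequence and across linkers.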
# [2] = biological target: Fuc(a1-2)Gal6S(b1-3)GlcNAc6S
# How it was run: as §1
# Fuc(a1-2)Gal6S(b1-4)Glc = biological target: Fuc(a1-2)Gal6S(b1-4)Glc
# How it was run: as §1
# [3] = biological target: Fuc(a1-2)Gal6S(b1-4)Glc6S
# How it was run: as §1
# Fuc(a1-2)[Gal(a1-3)]Gal = biological target: Fuc(a1-2)[Gal(a1-3)]Gal
# How it was run: as §1
# [4] = biological target: Fuc(a1-2)[Gal(a1-3)]Gal(b1-3)GalNAc
# How it was run: as §1
# [5] = biological target: Fuc(a1-2)[Gal(a1-3)]Gal(b1-3)GalNAc(b1-3)Gal(a1-4)Gal(b1-4)Glc
# How it was run: as §1
# [6] = biological target: Fuc(a1-2)[Gal(a1-3)]Gal(b1-3)GlcNAc
# How it was run: as §1
# [7] = biological target: Fuc(a1-2)[Gal(a1-3)]Gal(b1-3)GlcNAc(b1-2)Man(a1-3)[Fuc(a1-2)[Gal(a1-3)]Gal(b1-3)GlcNAc(b1-2)Man(a1-6)]Man(b1-4)GlcNAc(b1-4)GlcNAc
# How it was run: as §1
# [8] = biological target: Fuc(a1-2)[Gal(a1-3)]Gal(b1-3)GlcNAc(b1-2)Man(a1-3)[Fuc(a1-2)[Gal(a1-3)]Gal(b1-3)GlcNAc(b1-2)Man(a1-6)]Man(b1-4)GlcNAc(b1-4)[Fuc(a1-6)]GlcNAc
# How it was run: as §1
# [9] = biological target: Fuc(a1-2)[Gal(a1-3)]Gal(b1-3)GlcNAc(b1-3)GalNAc
# How it was run: as §1
# [10] = biological target: Fuc(a1-2)[Gal(a1-3)]Gal(b1-3)GlcNAc(b1-6)GalNAc
# How it was run: as §1
# [11] = biological target: Fuc(a1-2)[Gal(a1-3)]Gal(b1-4)Glc
# How it was run: as §1
# [12] = biological target: Fuc(a1-2)[Gal(a1-3)]Gal(b1-4)GlcNAc
# How it was run: as §1
# [13] = biological target: Fuc(a1-2)[Gal(a1-3)]Gal(b1-4)GlcNAc(b1-2)Man
# How it was run: as §1
# [14] = biological target: Fuc(a1-2)[Gal(a1-3)]Gal(b1-4)GlcNAc(b1-2)Man(a1-3)[Fuc(a1-2)[Gal(a1-3)]Gal(b1-4)GlcNAc(b1-2)Man(a1-6)]Man(b1-4)GlcNAc(b1-4)GlcNAc
# How it was run: as §1
# [15] = biological target: Fuc(a1-2)[Gal(a1-3)]Gal(b1-4)GlcNAc(b1-2)Man(a1-3)[Fuc(a1-2)[Gal(a1-3)]Gal(b1-4)GlcNAc(b1-2)Man(a1-6)]Man(b1-4)GlcNAc(b1-4)[Fuc(a1-6)]GlcNAc
# How it was run: as §1
# [16] = biological target: Fuc(a1-2)[Gal(a1-3)]Gal(b1-4)GlcNAc(b1-3)GalNAc
# How it was run: as §1
# [17] = biological target: Fuc(a1-2)[Gal(a1-3)]Gal(b1-4)GlcNAc(b1-3)[Fuc(a1-2)[Gal(a1-3)]Gal(b1-4)GlcNAc(b1-6)]GalNAc
# How it was run: as §1
# [18] = biological target: Fuc(a1-2)[Gal(a1-3)]Gal(b1-4)GlcNAc(b1-6)GalNAc
# How it was run: as §1
# [19] = biological target: Fuc(a1-2)[Gal(a1-3)]Gal(b1-4)[Fuc(a1-3)]Glc
# How it was run: as §1
# [20] = biological target: Fuc(a1-2)[Gal(a1-3)]Gal(b1-4)[Fuc(a1-3)]GlcNAc
# How it was run: as §1
# [21] = biological target: Fuc(a1-2)[Gal(a1-3)]Gal(b1-4)[Fuc(a1-3)]GlcNAc(b1-3)GalNAc
# How it was run: as §1
# [22] = biological target: Fuc(a1-2)[Gal(a1-4)]Gal(b1-4)GlcNAc
# How it was run: as §1
# [23] = biological target: Fuc(a1-2)[GalNAc(a1-3)]Gal
# How it was run: as §1
# [24] = biological target: Fuc(a1-2)[GalNAc(a1-3)]Gal(b1-3)GalNAc(a1-3)[Fuc(a1-2)]Gal(b1-4)GlcNAc
# How it was run: as §1
# [25] = biological target: Fuc(a1-2)[GalNAc(a1-3)]Gal(b1-3)GalNAc(b1-3)Gal(a1-4)Gal(b1-4)Glc
# How it was run: as §1
# [26] = biological target: Fuc(a1-2)[GalNAc(a1-3)]Gal(b1-3)GlcNAc
# How it was run: as §1
# [27] = biological target: Fuc(a1-2)[GalNAc(a1-3)]Gal(b1-3)GlcNAc(b1-2)Man(a1-3)[Fuc(a1-2)[GalNAc(a1-3)]Gal(b1-3)GlcNAc(b1-2)Man(a1-6)]Man(b1-4)GlcNAc(b1-4)GlcNAc
# How it was run: as §1
# [28] = biological target: Fuc(a1-2)[GalNAc(a1-3)]Gal(b1-3)GlcNAc(b1-2)Man(a1-3)[Fuc(a1-2)[GalNAc(a1-3)]Gal(b1-3)GlcNAc(b1-2)Man(a1-6)]Man(b1-4)GlcNAc(b1-4)[Fuc(a1-6)]GlcNAc
# How it was run: as §1
# [29] = biological target: Fuc(a1-2)[GalNAc(a1-3)]Gal(b1-3)GlcNAc(b1-3)GalNAc
# How it was run: as §1
# [30] = biological target: Fuc(a1-2)[GalNAc(a1-3)]Gal(b1-3)GlcNAc(b1-6)GalNAc
# How it was run: as §1
# [31] = biological target: Fuc(a1-2)[GalNAc(a1-3)]Gal(b1-4)Glc
# How it was run: as §1
# [32] = biological target: Fuc(a1-2)[GalNAc(a1-3)]Gal(b1-4)GlcNAc
# How it was run: as §1
# [33] = biological target: Fuc(a1-2)[GalNAc(a1-3)]Gal(b1-4)GlcNAc(b1-2)Man
# How it was run: as §1
# [34] = biological target: Fuc(a1-2)[GalNAc(a1-3)]Gal(b1-4)GlcNAc(b1-2)Man(a1-3)[Fuc(a1-2)[GalNAc(a1-3)]Gal(b1-4)GlcNAc(b1-2)Man(a1-6)]Man(b1-4)GlcNAc(b1-4)GlcNAc
# How it was run: as §1
# [35] = biological target: Fuc(a1-2)[GalNAc(a1-3)]Gal(b1-4)GlcNAc(b1-2)Man(a1-3)[Fuc(a1-2)[GalNAc(a1-3)]Gal(b1-4)GlcNAc(b1-2)Man(a1-6)]Man(b1-4)GlcNAc(b1-4)[Fuc(a1-6)]GlcNAc
# How it was run: as §1
# [36] = biological target: Fuc(a1-2)[GalNAc(a1-3)]Gal(b1-4)GlcNAc(b1-3)Gal(b1-4)GlcNAc
# How it was run: as §1
# [37] = biological target: Fuc(a1-2)[GalNAc(a1-3)]Gal(b1-4)GlcNAc(b1-3)Gal(b1-4)GlcNAc(b1-3)Gal(b1-4)GlcNAc
# How it was run: as §1
# [38] = biological target: Fuc(a1-2)[GalNAc(a1-3)]Gal(b1-4)GlcNAc(b1-3)GalNAc
# How it was run: as §1
# [39] = biological target: Fuc(a1-2)[GalNAc(a1-3)]Gal(b1-4)GlcNAc(b1-3)[Fuc(a1-2)[GalNAc(a1-3)]Gal(b1-4)GlcNAc(b1-6)]GalNAc
# How it was run: as §1
# [40] = biological target: Fuc(a1-2)[GalNAc(a1-3)]Gal(b1-4)GlcNAc(b1-6)GalNAc
# How it was run: as §1
# [41] = biological target: Fuc(a1-2)[GalNAc(a1-3)]Gal(b1-4)[Fuc(a1-3)]GlcNAc
# How it was run: as §1
# [42] = biological target: Fuc(a1-2)[GalNAc(a1-3)]Gal(b1-4)[Fuc(a1-3)]GlcNAc(b1-3)GalNAc
# How it was run: as §1
# [43] = biological target: Fuc(a1-2)[GalNAc(a1-4)]Gal(b1-4)GlcNAc
# How it was run: as §1
binder,measurement,setting,value
B1,glycan array binding signal (z-score),[1],-0.249
same,glycan array binding signal (z-score),[2],-0.166
same,glycan array binding signal (z-score),Fuc(a1-2)Gal6S(b1-4)Glc,-0.288
same,glycan array binding signal (z-score),[3],-0.303
same,glycan array binding signal (z-score),Fuc(a1-2)[Gal(a1-3)]Gal,0.001
same,glycan array binding signal (z-score),[4],0.754
same,glycan array binding signal (z-score),[5],-0.133
same,glycan array binding signal (z-score),[6],0.419
same,glycan array binding signal (z-score),[7],0.143
same,glycan array binding signal (z-score),[8],0.105
same,glycan array binding signal (z-score),[9],-0.099
same,glycan array binding signal (z-score),[10],-0.471
same,glycan array binding signal (z-score),[11],0.26
same,glycan array binding signal (z-score),[12],-0.234
same,glycan array binding signal (z-score),[13],-0.094
same,glycan array binding signal (z-score),[14],0.098
same,glycan array binding signal (z-score),[15],0.306
same,glycan array binding signal (z-score),[16],-0.548
same,glycan array binding signal (z-score),[17],0.418
same,glycan array binding signal (z-score),[18],-0.313
same,glycan array binding signal (z-score),[19],-0.166
same,glycan array binding signal (z-score),[20],-0.242
same,glycan array binding signal (z-score),[21],-0.384
same,glycan array binding signal (z-score),[22],0.195
same,glycan array binding signal (z-score),[23],0.127
same,glycan array binding signal (z-score),[24],-0.071
same,glycan array binding signal (z-score),[25],0.036
same,glycan array binding signal (z-score),[26],-0.19
same,glycan array binding signal (z-score),[27],-0.449
same,glycan array binding signal (z-score),[28],-0.127
same,glycan array binding signal (z-score),[29],0.168
same,glycan array binding signal (z-score),[30],-0.414
same,glycan array binding signal (z-score),[31],-0.489
same,glycan array binding signal (z-score),[32],0.016
same,glycan array binding signal (z-score),[33],-0.166
same,glycan array binding signal (z-score),[34],0.028
same,glycan array binding signal (z-score),[35],-0.37
same,glycan array binding signal (z-score),[36],0.527
same,glycan array binding signal (z-score),[37],-0.032
same,glycan array binding signal (z-score),[38],-0.147
same,glycan array binding signal (z-score),[39],-0.319
same,glycan array binding signal (z-score),[40],0.07
same,glycan array binding signal (z-score),[41],-0.307
same,glycan array binding signal (z-score),[42],21.1
same,glycan array binding signal (z-score),[43],0.107
